# Source: the supplement of paper PMC6531468
# The list shows a part of the results. Values come from read counts of a selection and are noisy. Each score is taken over the longer molecules that contain the sequence shown.
# System: IMP3 RRM1-2
# Experiment: 6-mer SELEX enrichment z-score vs GST control; IMP3 is the RNA-binding protein IGF2BP3; higher = more enriched by binding
# Conditions: construct: RRM1-2 (1-163); SELEX round: R2
# Description: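 SELEX-seq with GST-tagged IMP3 RRM1-2 (Met1-Asn163) and an N40 RNA pool, round 2. 6-mer enrichment z-score normalised to GST SELEX. RNA written as DNA (T = U).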
# IMP3 RRM1-2, sequence (chain, as listed by the source): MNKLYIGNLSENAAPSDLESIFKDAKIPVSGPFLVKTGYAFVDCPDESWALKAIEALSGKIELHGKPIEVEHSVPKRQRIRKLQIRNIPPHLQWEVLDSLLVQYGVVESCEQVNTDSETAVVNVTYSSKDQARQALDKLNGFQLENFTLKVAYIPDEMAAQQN
row,Sequence,6-mer SELEX enrichment z-score
1,AATGTA,-0.502
2,ACCCAT,-0.194
3,ATGTAA,-0.54
4,TGGCGT,0.404
5,CTGACT,-0.367
6,TAGTTT,0.487
7,AAGATG,-1.21
8,CGGCAC,0.482
9,TACGGA,-0.523
10,GCCTCA,0.187
11,TCTCAC,0.784
12,GGAGGC,-0.031
13,CACGGT,0.401
14,TTTGCT,0.364
15,GCTAGT,0.226
16,GATTGT,-0.036
17,TAATCT,0.121
18,CCAAGT,-0.381
19,GCCTTC,0.289
20,GTTTAA,-0.157

row,Sequence,6-mer SELEX enrichment z-score
1,TGCGCG,0.127
2,CGCTAT,0.117
3,ATGGGC,0.217
4,ACGATC,-0.121
5,GCCAAT,-0.127
6,GGATTC,0.069
7,TGGGTC,0.443
8,AGCAAT,0.595
9,ATCACG,1.63
10,ATCTCG,0.375
11,GCGCGA,-0.112
12,GTAGCG,0.06
13,TCCTTT,0.215
14,TGCCTA,-0.177
15,GAAGTC,-0.381
16,TTCGCC,-0.006
17,CGAGCT,0.185
18,AATTTT,0.003
19,GGTGTT,0.496
20,CACTAG,0.499
